# The campaign covered roughly 110,000 compounds. About 230 (0.21%) showed an effect of 50% or more. The list shows a part of the results.
# Biological target: DPAP1 (Plasmodium falciparum, UniProt Q8IIJ9)
# Experiment: primary screen, percent inhibition; read by cleavage of a fluorogenic dipeptide substrate; higher = more effect of the substance
# Set-up: species or system P. falciparum D10 trophozoite lysates; single well
# 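Further: 30 min substrate incubation versus DMSO and 10 µM JCP410 controls.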
# Chain of DPAP1 (Q8IIJ9 whole entry, looked up): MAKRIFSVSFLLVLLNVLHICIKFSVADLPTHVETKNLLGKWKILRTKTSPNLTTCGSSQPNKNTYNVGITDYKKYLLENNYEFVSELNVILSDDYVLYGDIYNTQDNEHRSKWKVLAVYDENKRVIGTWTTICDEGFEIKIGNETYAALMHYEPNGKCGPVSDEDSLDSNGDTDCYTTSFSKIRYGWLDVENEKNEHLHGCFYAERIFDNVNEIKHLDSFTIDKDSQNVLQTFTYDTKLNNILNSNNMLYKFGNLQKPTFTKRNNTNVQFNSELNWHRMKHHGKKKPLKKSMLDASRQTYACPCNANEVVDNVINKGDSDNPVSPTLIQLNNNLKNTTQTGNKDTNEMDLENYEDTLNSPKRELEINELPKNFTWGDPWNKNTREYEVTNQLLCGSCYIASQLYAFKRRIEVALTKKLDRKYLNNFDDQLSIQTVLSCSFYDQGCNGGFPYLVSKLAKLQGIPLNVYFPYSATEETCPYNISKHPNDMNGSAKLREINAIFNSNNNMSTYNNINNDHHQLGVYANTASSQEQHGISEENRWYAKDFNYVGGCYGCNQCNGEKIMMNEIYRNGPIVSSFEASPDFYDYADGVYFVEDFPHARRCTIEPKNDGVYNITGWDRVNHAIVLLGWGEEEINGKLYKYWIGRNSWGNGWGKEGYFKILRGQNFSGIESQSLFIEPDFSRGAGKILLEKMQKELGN
row,Structure (SMILES),% Inhibition @ 10 uM
1,Cc1ccc(S(=O)(=O)/N=C(\Nc2cc(C)on2)c2ccc(Cl)cc2)cc1,-1.51%
2,C=CCn1c(SCC(=O)NCc2ccc3c(c2)OCO3)nnc1-c1cccnc1,-8.98%
3,CC(=O)N1CCC(N2CCN(c3ccc(F)cc3)CC2)CC1,-5.31%
4,CCC(C(=O)Nc1ccc(CC(=O)O)cc1)c1ccccc1 (stereo not shown),2.44%
5,CC(C)CCNC(=O)c1cc2ccc3cccnc3c2[nH]1,4.27%
6,O=C(NCCN1CCCCCC1)c1ccc2nc(N3CCCCC3)sc2c1,-0.637%
7,CCOc1ccc(CNc2nc3ccc(C)cc3n3cnnc23)cc1OC,-2.42%
8,CCC(C)NC(=O)Cn1cc(S(=O)(=O)N2CCCC2)c(S(=O)(=O)N2CCCC2)c1 (stereo not shown),3.68%
9,CCc1ccc(NC(=O)C(CC)Oc2ccccc2)cc1 (stereo not shown),1.57%
10,CCOC(=O)NS(=O)(=O)c1ccc(CCNC(=O)c2cc(C)on2)cc1,3.77%
11,Cc1ccc(C2=N/C(=C\c3c(C)nn(-c4ccccc4)c3Cl)C(=O)O2)cc1,-2.86%
12,CCCCN(CC)C(=O)Cn1c(=O)sc2ccccc21,-1.48%
13,COCCCNC(=O)c1c2c(nn1C)-c1ccccc1SC2,-3.95%
14,CC(C)Oc1ccc(CNC(=O)C2(c3ccccc3)CCOCC2)cc1,-3.47%
15,CCc1c(CN2CCN(Cc3ccc4c(c3)OCO4)CC2)csc1C,-2.73%
16,Fc1ccc(-c2noc3ncnc(NCc4ccccc4Cl)c23)cc1,-7.13%
17,O=C1c2ccccc2C(=O)C1c1ccc(O)cc1,0.00178%
18,CCCCOc1ccc(/C=c2\sc3nc(C4COc5ccccc5O4)nn3c2=O)cc1OC (stereo not shown),-5.2%
19,O=C(NCc1ccco1)c1cnn2c1NC(c1ccc(Br)cc1)CC2C(F)(F)F (stereo not shown),4.33%
20,Cc1nc2nc(NC(=O)Cc3ccccc3)nn2c(O)c1Cc1ccccc1,-4.91%
21,Cc1sc(NC(=O)Cc2ccc(Cl)cc2)c(C#N)c1C,3.05%
22,O=C(O)c1cc(C2CC2)nc2ccccc12,0.878%
23,Oc1nc(-c2ccccc2)nc2c1C1(CCCC1)Cc1ccccc1-2,1.44%
24,CCOC(=O)N1CCC(NC2=NS(=O)(=O)C(c3ccc(C)cc3)=C2C)CC1,5.42%
25,COc1ccc(-c2cn3c4c(=O)n(C)c(=O)n(C)c4nc3n2CCCO)cc1,-2.24%

row,Structure (SMILES),% Inhibition @ 10 uM
1,CN1CCN(Cc2cccc3ccccc23)CC1,-3.65%
2,CCC(C)NC(=O)CN1N=C(c2ccc(C)cc2)CCC1=O (stereo not shown),0.514%
3,COCCn1c(=N)c(C(N)=O)cc2c(=O)n3cc(C)ccc3nc21,0.279%
4,CC(C)NS(=O)(=O)c1ccc(OCC(=O)NCc2ccncc2)cc1,-10%
5,c1ccc(NCc2ccc3c(c2)OCO3)cc1,0.177%
6,CCOc1ccc(NC(=O)CSC2=C(C#N)C(c3cccs3)CC(=O)N2)cc1 (stereo not shown),-6.36%
7,CN1C(=O)/C(=C/c2ccc(O)c(O)c2)S/C1=N/c1ccc(Cl)cc1,-0.545%
8,CCCN1C(=O)c2n[nH]c(C)c2C1c1ccc(O)cc1 (stereo not shown),-4.67%
9,CCCCOc1ccc(CC(=O)O)cc1,4.12%
10,O=C(CCCOc1ccc(Cl)cc1Cl)NCc1ccc2c(c1)OCO2,0.231%
11,O=C(c1ccccc1F)N1CCC(Cc2ccccc2)CC1,0.162%
12,COc1ccc(-n2nnc(-c3nc(-c4cccs4)no3)c2N)cc1Cl,-1.04%
13,Cc1ccc(/N=C/C2=C(O)CCCC2)c(C)c1,-4.03%
14,Cc1ccccc1CNC(=O)CSCc1ccccc1,0.746%
15,COc1ccc(-c2nc3s/c(=C\c4c(F)cccc4Cl)c(=O)n3n2)cc1OC,2.24%
16,CCOC(=O)N1CCN(c2c(NCCCc3ccccc3)c(=O)c2=O)CC1,-3.44%
17,COc1nc(-c2ccccc2)nc(C)c1Cc1ccccc1,-2.21%
18,COc1ccc2nc(NC(=O)COC(=O)/C=C/c3ccco3)sc2c1,-2.39%
19,Cc1ccc(C)c(OCCCCCN2CCN(C)CC2)c1C,4.57%
20,CCC(C(=O)NCCC1=CCCCC1)n1nc(C)c2c(C)n(-c3ccc(C)cc3)nc2c1=O (stereo not shown),2.31%
21,COc1ccccc1/C=C1/S/C(=N\c2ccccc2)N(Cc2cccnc2)C1=O,0.145%
22,CCN1CCN(CCCNC(=O)C2CCCN(C(=O)c3cc4sccc4n3CC)C2)CC1 (stereo not shown),1.16%
23,Cc1ccc(-c2noc(CCCC(=O)N(C)C)n2)cc1,0.558%
24,CN(Cc1c[nH]c2ccccc12)Cc1c[nH]c2ccccc12,0.605%
25,COc1cccc(C2C(C(=O)N(C)C)=C(C)Nc3nc4ccccc4n32)c1OC (stereo not shown),-5.43%

row,Structure (SMILES),% Inhibition @ 10 uM
1,Fc1ccccc1/C=C1\CCCC2=C1Nc1ncnn1C2c1ccccc1F (stereo not shown),-3.37%
2,CC(=O)NS(=O)(=O)c1ccc(NC(=O)COc2ccc3ccccc3c2Br)cc1,-0.68%
3,COc1ccccc1C1C(C#N)=C(N)N(c2nc[nH]n2)C2=C1C(=O)CC(C)(C)C2 (stereo not shown),0.726%
4,Cc1c(C(=O)NCCCN2CCN(C)CC2)oc2ccc3c(c12)C(O)CC1(CCCCCC1)O3 (stereo not shown),4.64%
5,COc1ccc(-c2noc(CC(=O)N3CCN(C)CC3)n2)cc1,1.13%
6,CC(CCc1ccccc1)NCc1ccco1 (stereo not shown),-1.81%
7,COc1ccc(C)cc1NC(=O)c1c(-c2ccccc2)noc1C,-3.24%
8,O=C(/C=C/c1ccccc1)Nc1sc2c(c1C(=O)O)CCCC2,-1.05%
9,COC1Cc2ccccc2N(C(N)=O)c2ccccc21 (stereo not shown),-1.82%
10,Cc1cc(C)nc(Nc2nc(C)c3cccc(C)c3n2)n1,2.3%
11,CC1CCCCN1C(=O)c1ccc(C(=O)N2CCCCC2C)cc1 (stereo not shown),-6.27%
12,CCN1CCCC1CNC(=O)C1c2cc(OC)c(OC)cc2C(=O)N(C)C1c1cccnc1 (stereo not shown),-3.9%
13,CCOC(=O)C1CCCN(Cc2ccc(Cl)cc2Cl)C1 (stereo not shown),-1.86%
14,COc1ccc(/C=C2/SC(Nc3ccccc3Cl)=NC2=O)c(OC)c1OC,-0.487%
15,CC(=O)C1=C(O)C(=O)N(CCc2c[nH]c3ccccc23)C1c1cccnc1 (stereo not shown),-3.71%
16,COc1ccc(/C=C2\CSC/C(=C/c3ccc(OC)cc3)C2=O)cc1,-3.96%
17,O=C1CNC(=O)/C1=C\c1ccc(O)cc1,2.17%
18,CC12COc3ccc(Br)cc3C1c1sc(O)nc1SC2 (stereo not shown),38.8%
19,Cc1cc(NC(=O)c2cc3ccc4cccnc4c3[nH]2)no1,6.05%
20,CC(=O)Nc1ccc(C2C(C#N)=C(N)Oc3[nH]nc(-c4ccc(C)cc4)c32)cc1 (stereo not shown),1.03%
21,Cc1onc(-c2ccccc2Cl)c1C(=O)NCc1ccc2c(c1)OCO2,-6.92%
22,Cc1nnc(SCc2nnnn2-c2ccccc2)nc1O,-3.23%
23,O=C(Nc1nnc(-c2ccc(Cl)cc2Cl)s1)c1ccc(S(=O)(=O)N2CCCC2)cc1,-0.769%
24,N#C/C(=C\c1c(Oc2ccccc2)nc2ccccn2c1=O)C(=O)NCc1ccccc1,-6.37%
25,CN(Cc1ccccc1)S(=O)(=O)c1ccc(NC(=O)c2ccco2)cc1,4.25%

row,Structure (SMILES),% Inhibition @ 10 uM
1,CCOC(=O)c1cnc(SCC(N)=O)nc1N,0.558%
2,Cc1ccc(C(=O)N/C(=C\c2ccco2)C(=O)N2CC(C)OC(C)C2)cc1C (stereo not shown),-2.88%
3,CC1CCN(S(=O)(=O)c2ccc3nc(-c4cccnc4)cc(C(=O)NCC4CCCO4)c3c2)CC1 (stereo not shown),-0.971%
4,COc1ccccc1C(=O)Nc1ccccc1F,7.48%
5,COc1cccc(C(=O)Nc2nc(C(F)(F)F)c(-c3ccccn3)s2)c1,-0.597%
6,NC(=O)C1CCN(c2c(S(=O)(=O)c3ccccc3)cnc3ccc(F)cc23)CC1,-5.03%
7,O=C1CC(NCc2ccco2)C(=O)N1c1ccc(F)cc1 (stereo not shown),3.24%
8,CSCCC(C(=O)N1CCCCC1)N1C(=O)C2C3c4ccccc4C(c4ccccc43)C2C1=O (stereo not shown),-3.28%
9,CC1=C(C#N)C(=O)N(C)C(=O)/C1=C\Nc1ccc(C)c(CN2C(=O)c3ccccc3C2=O)c1,-0.941%
10,COc1ccc(CCNS(=O)(=O)c2ccc(OC)c(Cl)c2Cl)cc1OC,4.57%
11,N#Cc1ccc(NC(=O)C2CC=CCC2C(=O)O)cc1 (stereo not shown),1.62%
12,O=C(O)C1CCCCC1C(=O)Nc1ccc(Oc2ccccc2)cc1 (stereo not shown),2.05%
13,Cc1cc(C)nc(NS(=O)(=O)c2ccc(Br)cc2)n1,-6.52%
14,Cc1nn(C)cc1NC(=O)Cn1nc(C(F)(F)F)cc1C1CC1,-1.36%
15,CCc1cccc(NC(=O)c2c(Cl)c(C)nn2C)c1,-3.26%
16,CCCCCCN1C(=O)C(O)=C(C(=O)c2ccccc2)C1c1ccc(O)c(OC)c1 (stereo not shown),4.55%
17,Cc1ccc(-c2nc(NC(=O)CCc3ccccc3)sc2C)cc1,0.685%
18,Cc1ccc2c(c1)/C(=C1/SC(Nc3ccc(C)c(Cl)c3)=NC1=O)C(=O)N2,-0.511%
19,COc1ccc(C(=O)C2=C(O)C(=O)N(CCCN(C)C)C2c2cccc(Oc3ccccc3)c2)cc1 (stereo not shown),2.17%
20,COc1ccc(C(c2c(NC(C)=O)sc3c2CCCC3)N2CCN(CCO)CC2)cc1OC (stereo not shown),-5.41%
21,O=C(CSc1nc[nH]n1)Nc1ccnc2ccccc12,-4.78%
22,CN1CCC(N(C)C2CCN(C)CC2)CC1,-5.44%
23,COc1cc(S(=O)(=O)N2CCN(Cc3ccc4c(c3)OCO4)CC2)c(OC)cc1Cl,-7.33%
24,Cc1ccc(S(=O)(=O)N(CC(=O)NC(C)C)c2cc(Cl)ccc2C)cc1,1.1%
25,COc1ccc(N(CC(=O)Nc2ccc(F)cc2)S(C)(=O)=O)cc1OC,-1.95%

# Reference: publication PMC6919601, “Identification of Plasmodium dipeptidyl aminopeptidase allosteric inhibitors by high throughput screening” (PLoS ONE, 2019)
